Test results published in PubChem BioAssay AID2451 (National Center for Advancing Translational Sciences (NCATS), 2010).
Out of some 290,000 compounds screened, about 2,100 (0.72%) were called active. Inconclusive results, whose numbers are uncertain, are shown with a selection of clear calls. Calls come from the whole dose curve; as a rule, active = well fitted inhibition curve with a large enough effect; inconclusive = small, poorly fitted or top-dose-only effect, or effect the other way; inactive = flat fitted curve, though single readings scatter. Potencies beside an inconclusive call are fits to weak or partial responses and may not hold up.
% is set by controls: 0 for no effect and ±100 for the full control effect; potency is the fitted concentration of half-maximal effect; tags give direction and shape of the fitted curve.
Note: nearly all actives have a fitted effect of over 55% in size.

What follows are compounds tested against Fructose-bisphosphate aldolase (Giardia intestinalis (strain ATCC 50803 / WB clone C6)) (UniProt A8B2U2) (assay: qHTS Assay for Inhibitors of Fructose-1,6-bisphosphate Aldolase from Giardia Lamblia). Conditions: purified Giardia FBPA; activity, negative = inhibition: at 59.6 µM (top of the series) unless noted.
Sequence of UniProt A8B2U2 (A8B2U2 whole entry, looked up): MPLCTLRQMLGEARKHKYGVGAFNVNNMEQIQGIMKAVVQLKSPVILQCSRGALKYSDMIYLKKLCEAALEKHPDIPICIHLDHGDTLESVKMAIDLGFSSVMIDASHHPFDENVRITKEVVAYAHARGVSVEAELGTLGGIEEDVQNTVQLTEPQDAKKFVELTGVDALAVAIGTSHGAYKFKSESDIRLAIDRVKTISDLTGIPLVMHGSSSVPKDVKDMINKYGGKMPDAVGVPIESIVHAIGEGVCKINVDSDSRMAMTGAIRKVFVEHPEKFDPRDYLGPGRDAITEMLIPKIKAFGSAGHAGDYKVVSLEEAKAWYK
In short: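 Giardia FBPA (40 nM reagent) was preincubated 10 min at RT with compound (up to 57.5 uM final), then substrate plus GAPDH/TPI/NAD/arsenate coupling system with diaphorase/resazurin was added; resorufin fluorescence (525/598 nm) was read after 20 min.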
In the case of CCc1ccn2cc(-c3ccc4c(c3)OCO4)nc2c1, the Potency is reported as inconclusive: 15.8 µM [inhibitor, single point].
For Cc1cc(=O)[nH]c(N=N/C(=N/Nc2ccc(O)cc2)c2ccccc2)n1, the Potency was inconclusive: 44.6 µM [inhibitor, single point].
O=C(O)CCC(=O)NCc1ccc2[nH]c3c(c2c1)CCCC3 was tested, and the Potency was inconclusive: 19.9 µM [inhibitor, single point].
With COn1c(C)c(C(C)=O)c2c3nonc3ccc21 the Potency was inconclusive: 8.89 µM [inhibitor, partial curve].
With Cc1cc(C)c(C(=O)/C=C/c2ccco2)c(=O)[nH]1 the Potency was inconclusive: 17.7 µM [inhibitor, partial curve].
In the case of COc1ccc(-c2nc3ccc(C)cn3c2NCc2ccc3c(c2)OCO3)cc1, the Potency is reported as inconclusive: 12.6 µM [inhibitor, partial curve].
O=C(NNC(=O)c1csc(-c2cccnc2)n1)c1ccccc1 was tested, and the Potency was inconclusive: 31.5 µM [inhibitor, single point].
CC(NC(=O)Cc1ccccc1)c1cc2c(cc1Br)OCCCO2 (stereo not drawn) was tested, and the “activity, negative = inhibition” value was inactive: 13.1%.
For Cc1c(CBr)[n+](=O)c2c(n1[O-])C(Br)CCC2Br (stereo not drawn), the Potency was inconclusive: 19.9 µM [inhibitor, single point].
With CN(C)CCCNc1c2c(nc3cc(-c4cccc(F)c4)nn13)CCC2 the “activity, negative = inhibition” value was inactive: 5.04%.
For Cc1ccc(CCC(=O)Nc2ccccc2F)s1, the “activity, negative = inhibition” value was inactive: -4.69%.
In the case of O=S(=O)(N1CCCCCC1)N1CCNCC1, the Potency is reported as inconclusive: 25.1 µM [inhibitor, single point].
In the case of CN(C(=O)Oc1ccc(C(C)(C)C)cc1)c1ccccc1, the “activity, negative = inhibition” value is reported as inactive: -11.2%.
For C=CCNc1oc(/C=C/c2ccccc2)nc1C#N, the “activity, negative = inhibition” value was inactive: -5.63%.
For CCCCN(CC)CCCNC(=O)c1cn(C)c2ccc(S(=O)(=O)N(C)C3CCCCC3)cc2c1=O, the “activity, negative = inhibition” value was inactive: -3.11%.
With Cc1ccc(-c2cc(-c3ccc(C)o3)nc(N)c2C#N)cc1 the Potency was inconclusive: 17.7 µM [inhibitor, single point].
For CC(=O)c1ccc(N2CCN(CC(O)COC(c3ccccc3)c3ccccc3)CC2)cc1 (stereo not drawn), the Potency was inconclusive: 20 µM [inhibitor, single point].
In the case of Cn1c(=O)c(=O)n(C)c2cc(N3CCCC3)c(NS(=O)(=O)c3ccc(Cl)cc3)cc21, the Potency is reported as inconclusive: 25.1 µM [inhibitor, partial curve].
With O=C(O)CN1C(=O)/C(=C\c2cc(Br)ccc2OCc2ccccc2F)SC1=S the “activity, negative = inhibition” value was inactive: 1.05%.
With COc1ccc(-c2ccc(CCC(=O)O)n2Cc2ccco2)cc1 the “activity, negative = inhibition” value was inactive: 20%.
With CC(=O)Nc1ccc2nc3ccccc3nc2c1 the Potency was inconclusive: 3.54 µM [inhibitor, full curve].
For O=[N+]([O-])c1ccc(O)c2ncccc12, the Potency was active: 19.9 µM.
With CCCNC(=O)c1ccc(SCC(=O)N(CC)CC)c([N+](=O)[O-])c1 the “activity, negative = inhibition” value was inactive: 1.81%.
In the case of CCCCCOC(=O)CC(C(=O)OCCCCC)N1CCCCC1 (stereo not drawn), the Potency is reported as inconclusive: 44.6 µM [inhibitor, single point].
In the case of CC(=O)Nc1ccc(S(=O)(=O)N2CCN(Cc3cccs3)CC2)cc1, the Potency is reported as inconclusive: 15.8 µM [inhibitor, partial curve].
For C=CCn1c(O)c(C=Nc2ccccc2)sc1=S, the “activity, negative = inhibition” value was inactive: -17%.
Cc1ccc(N2C(=O)NC(=O)/C(=C\c3ccc([N+](=O)[O-])o3)C2=O)cc1 was tested, and the Potency was inconclusive: 17.7 µM [inhibitor, partial curve].
For CCOC(=O)c1c(/N=C/c2ccc(OC)cc2O)sc2c1CCN(C)C2, the Potency was inconclusive: 15.8 µM [inhibitor, partial curve].
Cc1cccn2c(=O)c(/C=C3\SC(=S)NC3=O)c(NCCCN3CCOCC3)nc12 was tested, and the Potency was inconclusive: 7.06 µM [inhibitor, full curve].
In the case of C=CCC(NC(C)c1ccccc1)c1ccco1 (stereo not drawn), the Potency is reported as inconclusive: 7.92 µM [inhibitor, partial curve].
In the case of CN1CCc2nc(SCC(=O)Nc3ccc(OC(F)(F)F)cc3)c(C#N)c(-c3cccs3)c2C1, the Potency is reported as inconclusive: 7.92 µM [inhibitor, full curve, poor fit].
CCCN1CCN(CC(O)COC(c2ccc(OC)cc2)c2ccc(OC)cc2)CC1 (stereo not drawn) was tested, and the Potency was inconclusive: 15.8 µM [inhibitor, partial curve].
In the case of Cc1cccc(-n2c(C)n[nH]c2=S)c1, the Potency is reported as inconclusive: 17.7 µM [inhibitor, partial curve].
For CC(=O)N1CC=C2C(C#N)=C(N)C(C#N)(C#N)C(C)C2C1 (stereo not drawn), the Potency was inconclusive: 19.9 µM [inhibitor, partial curve].
With O=C(CN1CCN(c2ccc(O)cc2)CC1)Nc1cc(S(=O)(=O)N2CCCC2)ccc1Cl the Potency was inconclusive: 22.3 µM [inhibitor, single point].
For Fc1ccc(OCCCCN2CCOCC2)cc1, the “activity, negative = inhibition” value was inactive: -3.44%.
In the case of COc1cccc(-c2nnc(NC(=O)c3ccc(Cl)s3)o2)c1, the Potency is reported as inconclusive: 19.9 µM [activator, single point].
O=C(NNC(=O)C1C2C=CC(C2)C1C(=O)O)c1ccccc1O (stereo not drawn) was tested, and the Potency was inconclusive: 15.8 µM [inhibitor, partial curve].
In the case of CNC(=S)N/N=C/c1ccc(-c2ccc(C(=O)O)cc2)o1, the Potency is reported as active: 17.7 µM.
For CCc1ccc(C2C(C#N)=C(N)N(N(C)C)C3=C2C(=O)CCC3)s1 (stereo not drawn), the Potency was inconclusive: 15.8 µM [inhibitor, partial curve].
With CSc1ccc(CN2CCN(c3ccccc3C)CC2)cc1 the Potency was inconclusive: 31.6 µM [inhibitor, single point].
In the case of COc1cc(C(=O)NC(=S)Nc2csc(-c3ccc(F)cc3)n2)cc(OC)c1OC, the Potency is reported as inconclusive: 14.1 µM [inhibitor, partial curve].
With O=C(O)CNc1nc(-c2ccccc2)c2cc([N+](=O)[O-])ccc2n1 the Potency was inconclusive: 7.92 µM [inhibitor, partial curve].
In the case of O=C(c1cc(COc2ccc(F)cc2F)on1)N1CCN(C2CCCC2)C(=O)C1, the “activity, negative = inhibition” value is reported as inactive: 2.47%.
With Cc1ccc(NC(=S)N2CCC(N(C)CC3CCCO3)CC2)cc1 (stereo not drawn) the Potency was inconclusive: 25.1 µM [inhibitor, single point].
In the case of NC(=S)Nn1c(-c2ccccc2)nc2ccccc2c1=O, the Potency is reported as inconclusive: 17.7 µM [inhibitor, partial curve].
In the case of Cc1ccccc1S(=O)(=O)Nc1nc2ccccc2nc1N1CCc2ccccc2C1, the “activity, negative = inhibition” value is reported as inactive: -0.735%.
For Cc1cc(C)n2cc(CSCC(=O)O)nc2n1, the Potency was inconclusive: 15.8 µM [inhibitor, partial curve].
For CCOC(=O)N1CCN(CCC(=O)Nc2cccc(Cl)c2C)CC1, the Potency was inconclusive: 28.2 µM [inhibitor, single point].
With COc1ccc2c(c1)-c1nc(/N=C/c3ccc(O)c(OC)c3)sc1CC2 the Potency was inconclusive: 19.9 µM [inhibitor, partial curve].
For CC(=O)[C@@H]1[C@@H](C(=O)c2ccccc2)[C@]2(C(=O)Nc3ccccc32)[C@H]2C=Cc3cc(F)ccc3N12, the Potency was inconclusive: 17.7 µM [inhibitor, single point].
For COC(=O)C1CCCN1S(=O)(=O)c1ccc([N+](=O)[O-])cc1 (stereo not drawn), the “activity, negative = inhibition” value was inactive: -2.44%.
In the case of CC(O)CN(Cc1ccc(Cl)cc1)CC(C)O (stereo not drawn), the Potency is reported as inconclusive: 17.7 µM [inhibitor, partial curve].
For CC1CCC(C(=O)NNC(=O)c2cc(-c3ccco3)[nH]n2)CC1 (stereo not drawn), the “activity, negative = inhibition” value was inactive: -8.23%.
With Cc1sc2c3ccsc3ccc2[n+]1C the Potency was inconclusive: 19.9 µM [inhibitor, single point].
With Cc1ccc(CSCCNC(=O)c2ccc(Cl)c(S(=O)(=O)N3CCOCC3)c2)cc1 the “activity, negative = inhibition” value was inactive: -1.39%.
In the case of Cc1ccc(S(=O)(=O)NNC(=S)NC(=O)c2ccc([N+](=O)[O-])cc2)cc1, the Potency is reported as inconclusive: 4.46 µM [activator, partial curve].
Clc1ccc(CNCCCSc2ncccn2)cc1 was tested, and the Potency was inconclusive: 25.1 µM [inhibitor, partial curve].
For O=C(NC(=S)Nc1ccc2oc(=O)ccc2c1)c1cccc(F)c1, the Potency was inconclusive: 14.1 µM [inhibitor, partial curve].
Clc1cccc(OCCCCN2CCCCC2)c1 was tested, and the Potency was inconclusive: 8.91 µM [inhibitor, partial curve].
In the case of CCCCOc1ccc(NC(=O)CN2CCN(C(=O)OCC)CC2)cc1, the Potency is reported as inconclusive: 35.4 µM [inhibitor, single point].
With CCOC(=O)C1CCN(Cc2ccccc2C)CC1 the Potency was inconclusive: 14.1 µM [inhibitor, partial curve].
With O=S(=O)(NC(=S)c1ccccc1)c1ccc(Cl)cc1 the Potency was inconclusive: 20 µM [activator, single point].
For CCCC(O)(c1ccc(Cl)cc1)C(CN1CCOCC1)c1ccccc1 (stereo not drawn), the “activity, negative = inhibition” value was inactive: -15%.
CCOc1cc(C(c2c(C)[nH][nH]c2=O)c2c(C)[nH][nH]c2=O)cc(Cl)c1O was tested, and the Potency was inconclusive: 12.6 µM [inhibitor, partial curve].
Cc1cccnc1NC(=S)NC(=O)c1cccs1 was tested, and the Potency was active: 19.9 µM.
For CCC1(COC(=O)Nc2cccc(Cl)c2)COC1, the “activity, negative = inhibition” value was inactive: -2.71%.
For c1ccc(-c2ccc(-c3cn4c(n3)CCC4)cc2)cc1, the “activity, negative = inhibition” value was inactive: -5.78%.
For O=C(O)CCC(=O)N1N=C(c2ccccc2)CC1c1ccc2nccnc2c1 (stereo not drawn), the “activity, negative = inhibition” value was inactive: 1.97%.
For Cc1ccc(-c2c(C(=O)N/N=C/c3ccsc3)nnn2-c2nonc2N)cc1, the Potency was inconclusive: 35.5 µM [inhibitor, single point].
O=C(c1ccc2c(c1)OCO2)N1CCN(c2ccc(C(F)(F)F)cn2)CC1 was tested, and the “activity, negative = inhibition” value was inactive: 5.55%.
Cc1cccc(-n2cnc(C(=O)O)c2)n1 was tested, and the Potency was active: 19.9 µM.
For O=S(=O)(c1ccc2ccccc2c1)N1CCN(Cc2ccccn2)CC1, the Potency was inconclusive: 44.6 µM [inhibitor, single point].
